We go through 172 sequences from paper PMC10668032.

The list shows a part of the results. At the low end of the ranking the order means little.

The target in this experiment is SIX1-Q177R homeodomain (UniProt Q15475). Description: universal protein binding microarray. To be noted: Universal all-10-mer PBM (8x60K, AMADID 030236), 300 nM GST-tagged protein, Alexa Fluor 488 anti-GST; buffer, salt, pH and temperature not stated; high values mean tight binding; most listed sequences are background and not binding sites; double strand, one strand shown.
In the case of GTGACAAC, the binding signal is -0.0524 E-score.

With CTGTACCC, the binding signal was 0.183 E-score.

Consider GCGAGAGA, for which the binding signal is -0.114 E-score.

With CCCACGCA, the binding signal was 0.00271 E-score.

With ACCGACAG, the binding signal was determined as 0.104 E-score.

On to ACAGTTTG, for which the binding signal was -0.259 E-score.

In the case of AGGCCGCC, the binding signal was -0.365 E-score.

For CAGGTCCG, the binding signal was -0.113 E-score.

For ACTGGTCG, the binding signal was -0.0496 E-score.

For the sequence ACATGTTG, the binding signal came to 0.0251 E-score.

For the sequence GCGGAGAC, the binding signal was -0.108 E-score.

For the sequence GCCCAGCA, the binding signal was -0.135 E-score.

As to CCTACAAC, the binding signal was determined as 0.0683 E-score.

With GCGTAGAA, the binding signal is -0.0506 E-score.

For the sequence TTAACGAA, the binding signal is -0.101 E-score.

As to CTATAGCC, the binding signal is -0.0826 E-score.

Regarding CAAACATC, the binding signal was -0.339 E-score.

Turning to CAGAATCA, the binding signal was -0.0027 E-score.

Turning to ATGATAAT, the binding signal is -0.253 E-score.

Take GCCAGAGC: the binding signal was -0.0441 E-score.

As to CCGCGATA, the binding signal amounted to 0.0262 E-score.

On to CTGAACCA, for which the binding signal was -0.141 E-score.

Regarding CCGCCCAA, the binding signal is -0.0688 E-score.

For the sequence TATTCAGA, the binding signal is -0.0124 E-score.

Turning to GGTCCGAC, the binding signal was determined as 0.0202 E-score.

With GTCACCCA, the binding signal came to 0.0838 E-score.

As for AAGCCGTC, the binding signal is -0.186 E-score.

Regarding ATTAGAGC, the binding signal came to 0.0378 E-score.

ATGGGCCA: the binding signal is -0.246 E-score.

For the sequence TCACACAA, the binding signal was -0.0208 E-score.

On to AGACTTAA, for which the binding signal was -0.153 E-score.

For GACTGTAC, the binding signal was -0.00257 E-score.

Regarding GAACGTTA, the binding signal is -0.262 E-score.

Take GTTGTATA: the binding signal was 0.0198 E-score.

As to ATACCTCG, the binding signal is 0.147 E-score.

On to ACACTAAA, for which the binding signal was found to be 0.345 E-score.

With ATGGCATC, the binding signal is -0.062 E-score.

Take GCCGCGAA: the binding signal was -0.212 E-score.

For the sequence GCTCAAGC, the binding signal was -0.123 E-score.

On to CACACTAG, for which the binding signal stood at 0.25 E-score.

In the case of AACTCTAT, the binding signal is -0.171 E-score.

In the case of CGTATTGC, the binding signal is -0.21 E-score.

For ATTCTGGC, the binding signal is -0.152 E-score.

On to AAGTCGCG, for which the binding signal was -0.0815 E-score.

As for GAAAAGAA, the binding signal is -0.128 E-score.

As to AGAAATGG, the binding signal was -0.162 E-score.

Regarding CACATACG, the binding signal is -0.125 E-score.

As for ACGCGCCG, the binding signal came out at 0.0317 E-score.

With ACTGATAC, the binding signal amounted to 0.295 E-score.

As for CACGTCCC, the binding signal is 0.165 E-score.

Take ATGGCCGG: the binding signal was -0.0547 E-score.

Consider CGTATATC, for which the binding signal was -0.0244 E-score.

As to CTTCGCAC, the binding signal was found to be 0.0189 E-score.

On to GCATGCGC, for which the binding signal was -0.202 E-score.

In the case of ACACCTTA, the binding signal stood at 0.456 E-score.

Take AAGGGGTA: the binding signal was found to be 0.287 E-score.

Regarding GCACGATA, the binding signal turned out to be 0.0723 E-score.

As to ATCCCGTC, the binding signal turned out to be 0.0998 E-score.

As to AGAGTCGC, the binding signal is -0.0679 E-score.

Take ATAGACCA: the binding signal is -0.166 E-score.

Consider ACTTAGGA, for which the binding signal turned out to be 0.0182 E-score.

On to CAACGCAA, for which the binding signal is -0.146 E-score.

Consider CCCTAAAC, for which the binding signal was -0.0377 E-score.

With CAAGAATG, the binding signal was -0.178 E-score.

On to AGCCGAAG, for which the binding signal was -0.0867 E-score.

Consider CCCTCCGA, for which the binding signal came to 0.161 E-score.

As to ACTAGTTG, the binding signal was -0.0799 E-score.

For the sequence CTTTAGAC, the binding signal is -0.0885 E-score.

Regarding AAGTCAGA, the binding signal is -0.137 E-score.

Consider AATTGTAC, for which the binding signal was -0.0678 E-score.

AACATGGA: the binding signal was -0.176 E-score.

Turning to AGAAACTG, the binding signal was -0.0259 E-score.

For the sequence AACCCGGT, the binding signal turned out to be 0.114 E-score.

As for ATCAAGTA, the binding signal was 0.0909 E-score.

As to ATTATTCG, the binding signal is -0.114 E-score.

Regarding AATAGGAA, the binding signal was -0.135 E-score.

AAGCCAGG: the binding signal was -0.0613 E-score.

Turning to TCCTTCAA, the binding signal is -0.15 E-score.

Take ACCGATCA: the binding signal is -0.124 E-score.

Turning to GGCTTGGA, the binding signal is -0.00594 E-score.

GGGGATTA: the binding signal came to 0.123 E-score.

With AACCACAC, the binding signal came to 0.281 E-score.

As to CCAGCTCC, the binding signal amounted to 0.0734 E-score.

As to ACCTCATG, the binding signal is 0.136 E-score.

Take AGAGTTCA: the binding signal is -0.187 E-score.

For CTTCGAGC, the binding signal is -0.239 E-score.

As for CTGCTGTA, the binding signal is -0.113 E-score.

For TACACAGA, the binding signal is 0.152 E-score.

For CGGATTTC, the binding signal was -0.149 E-score.

As for CCACAACA, the binding signal is 0.139 E-score.

AACTAGAA: the binding signal is -0.00851 E-score.

On to AGATCTCA, for which the binding signal is -0.146 E-score.

GGGCTCAA: the binding signal is -0.0773 E-score.

Take ATTCTGAC: the binding signal was -0.0321 E-score.

Consider TAATTTGA, for which the binding signal is -0.155 E-score.

As for GGGAAAGA, the binding signal was -0.122 E-score.

ACCCGCGG: the binding signal amounted to 0.171 E-score.

Take GCGGACCA: the binding signal was -0.0845 E-score.

In the case of AAGAGCAA, the binding signal amounted to 0.0372 E-score.

Take CGATTTGC: the binding signal is -0.0484 E-score.

On to ACAACGGT, for which the binding signal was determined as 0.0353 E-score.

Regarding CGACCGAA, the binding signal is -0.182 E-score.

On to ATAGTAAC, for which the binding signal was -0.041 E-score.

For the sequence GCTTAACA, the binding signal turned out to be 0.171 E-score.

With CGGCCTAC, the binding signal was 0.0186 E-score.

In the case of CATACATC, the binding signal was -0.00473 E-score.

Turning to AACAATCA, the binding signal was -0.107 E-score.

As to ATGAACAG, the binding signal is -0.173 E-score.

Take ACGGAGTC: the binding signal was 0.181 E-score.

Consider GTGATACA, for which the binding signal amounted to 0.172 E-score.

For CACTTCTC, the binding signal is 0.101 E-score.

With CGCATCCG, the binding signal was -0.0492 E-score.

As for CCGTCCTA, the binding signal was -0.147 E-score.

Consider CCTCGCTC, for which the binding signal was -0.000145 E-score.

CGACGAAA: the binding signal was -0.321 E-score.

Consider ACAGAGAC, for which the binding signal came out at 0.0948 E-score.

Take AAAGTGGA: the binding signal is -0.197 E-score.

Regarding CCCACAGA, the binding signal is 0.0594 E-score.

Take AGGTAAAT: the binding signal is -0.0303 E-score.

With ACCTGGCC, the binding signal is 0.081 E-score.

Consider GCTTAAAA, for which the binding signal is -0.217 E-score.

As to AAAAAGCC, the binding signal was -0.261 E-score.

For the sequence GAACATAA, the binding signal is -0.354 E-score.

Consider AGATGCAG, for which the binding signal was -0.153 E-score.

As to AATAAGTC, the binding signal is -0.199 E-score.

Take CTGCTTCC: the binding signal is -0.203 E-score.

As for CATTGGAC, the binding signal was found to be 0.000505 E-score.

With ACCCCCGG, the binding signal came out at 0.305 E-score.

On to ATAGACGA, for which the binding signal was -0.149 E-score.

For the sequence CGTAACTA, the binding signal was -0.0947 E-score.

As for ATCGTTGA, the binding signal is -0.188 E-score.

Consider ATTACTTA, for which the binding signal is -0.101 E-score.

CCTTAGCC: the binding signal is -0.0382 E-score.

As for CCCAGCCA, the binding signal was 0.106 E-score.

With AGGGTCCG, the binding signal was determined as 0.0921 E-score.

On to CCTAGCGC, for which the binding signal was -0.206 E-score.

ACGTCTCG: the binding signal is -0.093 E-score.

Take CTCACCAG: the binding signal is -0.039 E-score.

On to CAAGGGTG, for which the binding signal is 0.252 E-score.

For the sequence AGGCGTCA, the binding signal came to 0.13 E-score.

As for CCGGACAG, the binding signal was -0.132 E-score.

For ACTGCGCC, the binding signal was -0.144 E-score.

In the case of AATGCCAG, the binding signal was -0.359 E-score.

CGACGTAC: the binding signal came to 0.117 E-score.

As to CCATCGAG, the binding signal worked out at 0.104 E-score.

Regarding CCCGTCCA, the binding signal is -0.0257 E-score.

Take CGCGTTGA: the binding signal was -0.0432 E-score.

Take ACGGATAG: the binding signal is 0.0733 E-score.

ATCCACTG: the binding signal was -0.0855 E-score.

TTCGGAAA: the binding signal is -0.305 E-score.

As to ATGTTACC, the binding signal was -0.000635 E-score.

In the case of ACTTACGG, the binding signal is 0.0716 E-score.

Take GACGGAGA: the binding signal is -0.125 E-score.

For the sequence CTGGATAC, the binding signal was found to be 0.222 E-score.

With AAACAATT, the binding signal is -0.248 E-score.

For ACTGCGAA, the binding signal is -0.296 E-score.

In the case of ACATGTAA, the binding signal amounted to 0.0357 E-score.

On to GTTTTCTA, for which the binding signal is -0.0704 E-score.

Consider CCATATCG, for which the binding signal turned out to be 0.0847 E-score.

Consider GACATAAA, for which the binding signal is -0.143 E-score.

For the sequence TGCACGCA, the binding signal is 0.0617 E-score.

As to CCTTAGAA, the binding signal turned out to be 0.103 E-score.

For the sequence ACTAGAAG, the binding signal is -0.0287 E-score.

For CACGTCGA, the binding signal worked out at 0.177 E-score.

Take ACTGTACG: the binding signal is -0.094 E-score.

As for GGAGCAAA, the binding signal is -0.23 E-score.

Consider ATACGATA, for which the binding signal came to 0.0741 E-score.

Consider CAATTATA, for which the binding signal is -0.253 E-score.

For the sequence CCCTTGTA, the binding signal was 0.208 E-score.

For TGCAACAA, the binding signal is -0.0271 E-score.

As to CAGCTAAG, the binding signal was -0.11 E-score.

Regarding AAAGTATA, the binding signal is -0.158 E-score.
